# Measurements taken from the supplement of paper PMC11417369.
# ± gives the standard deviation of the averaged measurements. The list shows a part of the results.
# Tested on: PfAP2-LT AP2 domain (GST-tagged)
# Assay: gcPBM binding intensity (ln(normalized median fluorescence intensity)); higher = stronger DNA binding
# Procedure, shortened: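 After 1 h on an Agilent 4 × 180k array of primer-extended double-stranded 36-bp intergenic genomic probes and negative controls, bound GST-tagged P. falciparum DNA-binding domains were detected with Alexa488 anti-GST antibody and scanned at 488 nm. The domains had been expressed in E. coli, and binding took place in 1× PBS with 1% milk, 0.2 mg/ml BSA, 0.5% salmon testes DNA and 0.03% Triton X-100. Binding intensity is the highest Masliner-normalised natural-log median intensity across replicate spots of either probe orientation.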
row,Sequence,gcPBM binding intensity (ln)
1,TTTAAGAGTTGCACACGTACAAAAAAAAAAAAAAAA [XGTACX_site7406],8.76 ± 0.49
2,ATAAGATGATGGAACTGTAATATATATATATATATA [CACACA_negctrl_site839],9.39 ± 0.19
3,GTATACCAACATATTATACACACCTTTATATTTTTT [CACACA_site2153],8.91 ± 0.45
4,TGCAACAAAATAAACACACACACACCCCCACAAAAA [CACACA_site3388],10.36 ± 0.057
5,AATAAAAAAATAAAATGTACATACAAATAAATAAAT [XGTACX_site5153],9.03 ± 0.48
6,TATTTTAATGAAGCATTTAAGGGAAAAAAAAAAAAA [TGCATGCA_negctrl_site606],8.21 ± 0.33
7,TTATACTGTTTCAGAAAAATAAAGAATGAAAGTATT [XGTACX_negctrl_site230],8.58 ± 0.44
8,TTTTTATATTCCCCCAGTACATATATAATAGTAGTA [XGTACX_site7927],9.08 ± 0.3
9,AAGTAATACAACACGCACATATATATATATATATAT [GTGCAC_negctrl_site89],10.3 ± 0.25
10,TACCTAAATAAATGGACACACACATATATATATATA [CACACA_site8407],9.79 ± 0.21
11,TTATAGCCTGTGAAGAGTACATTTTTATTTTTTATT [XGTACX_site4105],8.66 ± 0.41
12,TATTTTTAAATATAAAGTACTTATATTAACTACGAA [XGTACX_site1524],8.27 ± 0.44
13,ATTTTTTCTGTCTTAATTGGACCCACTGCAAATGGG [CACACA_negctrl_site1158],8.41 ± 0.48
14,ATAATACAAAAAAAAAAAAAAAATAAAATAATAAAA [GTGCAC_negctrl_site722],8.51 ± 0.64
15,ATATATATGCATATATGTACTTAAAATATAAAGGCA [XGTACX_site3256],8.9 ± 0.48
16,TTCATATATTTTAAAGCATGCATTCATCTTATAGTT [TGCATGCA_site800],8.79 ± 0.41
17,TTTACGCTATAGGAGAGTACTTATAAAATCCTGTGT [XGTACX_site2364],8.74 ± 0.52
18,TATTTTTCCATTGGGGGTACATGTGTTATATTTATT [XGTACX_site5914],9.63 ± 0.26
19,TACAAAATATATATGACACACACAAAAAAAGTATAT [CACACA_site8455],9.47 ± 0.43
20,AGACGAAAATAATAAAGTACTAAAAAAAAAAAAAAA [XGTACX_site927],8.56 ± 0.56
21,AATAAATTATTTATTGCATGTAATATGAATATTTTT [TGCATGCA_site798],8.51 ± 0.37
22,ATATATTTTATTCCTATATATATATATATATATATA [GTGCAC_negctrl_site556],9.11 ± 0.19

row,Sequence,gcPBM binding intensity (ln)
1,TAATGTATGAAATAAACACACAAGTAAGTACATAAA [CACACA_site2451],9.19 ± 0.36
2,CATTATGTCATAAATGCACACATATACATTGTTTTG [CACACA_site8118],9.21 ± 0.32
3,AGAAAAAAAATATACACACATACGATCATACATATG [CACACA_site2171],9.24 ± 0.47
4,ACCTCTTTGAAATATACACACTAAACATATCAACTT [CACACA_site5372],9.04 ± 0.4
5,TACATAGAGTTTGTTTGTACTCATATGCGTAAATTC [XGTACX_site4810],8.75 ± 0.41
6,TCTGTAGTTTTTTACAGTACTTTTAGGTAATACATA [XGTACX_site7417],8.59 ± 0.4
7,AAAACACCCAAACACACACACACATATATATATATA [CACACA_site9119],10.2 ± 0.35
8,TTCTTGTATTTTCATAGTACATATAATGTCGTGTTA [XGTACX_site7714],9.02 ± 0.43
9,TTTCTTTTTTTTTTTTTTTCTGGCTTTTTCTCTTTT [TGCATGCA_negctrl_site599],8.69 ± 0.49
10,TTTTTATTTTTTTTATGTACACAAATGATATACATA [XGTACX_site5910],8.6 ± 0.51
11,AGGATACACGGACACACACACATATAGATTTATATA [CACACA_site6552],9.78 ± 0.51
12,TTCTGAACAAAATTATATATTTATTTTTATTTTCAT [CACACA_negctrl_site422],8.48 ± 0.5
13,ATTATTTTTCTATGTGTGCACGTGTGGAATGTGTCT [GTGCAC_site9507],9.38 ± 0.33
14,TATATTACTTAAAATACACACCATGGAAAAGTTTTA [CACACA_site5443],8.74 ± 0.37
15,ATATTTATATTTGTATGTACTTAAGTTTGTATGTAT [XGTACX_site3608],9.04 ± 0.43
16,ATATATTAGGGCAAATTTTCTGACATTACATCAGTC [CACACA_negctrl_site1166],8.66 ± 0.4
17,TATTTTTCTTTTTTCTGTACTCACACAAATAGAAGG [XGTACX_site7329],8.57 ± 0.39
18,CGTAAATTTTTTAAAAGTACAAAAAGATACGAGAAA [XGTACX_site8722],8.58 ± 0.48
19,TAAACAAATAAATAAACACACAATATATGTATATAT [CACACA_site3803],9.05 ± 0.38
20,TGTGTTAAATGTAATAGTGAATAAATAATTTTAACA [TGCATGCA_negctrl_site161],8.53 ± 0.55
21,AAAATGAATATAATGACGCACACTTAAAATTGTTAA [CACACA_site2509],8.92 ± 0.44
